# Measured values as given in PubChem BioAssay (NCATS).
# This list was built around the results that the source calls inconclusive (neither active nor inactive); the mix of calls is not that of the screen. Where a call stands in place of a potency, no number is given. For some assays here: Where the call is inconclusive, the potency comes from a doubtful curve fit. Activity calls are given as the source filed them. Calls come from the whole dose curve; as a rule, active = well fitted curve in the direction sought with a large enough effect; inconclusive = small, poorly fitted or top-dose-only effect, or another doubt; inactive = no such curve, though single readings can be large; an effect the other way counts as inactive or inconclusive.
# Experiments:
# CAOV3 = test: Primary qHTS to identify gynecologic anti-cancer compounds using libraries of approved drugs and bioactive compounds (AID 1345084); settings: Gynecologic cancer cell panel viability, ATPlite luminescence, 48 h; series mostly up to 57.5 µM; note: nearly all actives have a fitted effect of over 55% in size; note: potency is the fitted concentration of half-maximal effect
# In short: (§1)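 Measured: luminescence after ATPlite addition (15 min, RT). Exposure: 48 h, 37 C, 5% CO2.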
# [1] = Primary qHTS for inhibitors of nuclear receptor binding SET domain protein 2 (NSD2) in an RCH-ACV wild type WT cells (2C) (AID 1645877); settings: RCH-ACV NSD2 WT (2C) viability, CellTiter-Glo, 72 h; series mostly up to 44.9 µM; note: potency is the fitted concentration of half-maximal effect; nearly all actives have a fitted effect of over 70% in size
# SKOV3 = test: Primary qHTS to identify gynecologic anti-cancer compounds using libraries of approved drugs and bioactive compounds (AID 1345084); settings: Gynecologic cancer cell panel viability, ATPlite luminescence, 48 h; series mostly up to 57.5 µM; note: nearly all actives have a fitted effect of over 55% in size; note: potency is the fitted concentration of half-maximal effect
# In short: as §1
# [2] = qHTS of pediatric cancer cell lines to identify multiple opportunities for drug repurposing: Primary screen for BT-37 cells (AID 1347094); settings: BT-37 viability, CellTiter-Glo luminescence, 48 h; series mostly up to 57.3 µM
# In short: (§2)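 Cells plated at 500-1,000/well in growth medium, compounds added after 5 h. MIPE tested at 11 points (from 0.78 nM), NPC at 8 points (from 0.59 nM). CellTiter-Glo luminescence after 48 h; concentration-response curves from primary screen.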
# [3] = qHTS of pediatric cancer cell lines to identify multiple opportunities for drug repurposing: Primary screen for Rh41 cells (AID 1347108); settings: Rh41 rhabdomyosarcoma viability, CellTiter-Glo luminescence, 48 h; series mostly up to 46 µM;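 note: luminescence drop marks cytotoxic hits; nearly all actives have a fitted effect of over 70% in size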
# In short: as §2
# [4] = Primary qHTS for small molecule stabilizers of the endoplasmic reticulum resident proteome: Secreted ER Calcium Modulated Protein (SERCaMP) assay (AID 1508630); settings: SH-SY5Y GLuc-SERCaMP (Gaussia luciferase released on ER calcium loss) secretion, thapsigargin, luminescence; series mostly up to 38.4 µM; note: potency is the fitted concentration of half-maximal effect
# In short: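 The SH-SY5Y reporter protocol was run at 3 concentrations up to 38.3 uM (primary) or 11 concentrations (follow-up): 16 h compound, 100 nM thapsigargin for 4 h, then extracellular luciferase luminescence.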
# [5] = Primary qHTS for inhibitors of nuclear receptor binding SET domain protein 2 (NSD2) in an isogenic RCH-ACV NSD2 p.E1099K mutant (9B) (AID 1645876); settings: RCH-ACV (leukaemia line) NSD2 E1099K (9B) viability, CellTiter-Glo, 72 h; series mostly up to 44.9 µM; note: nearly all actives have a fitted effect of over 70% in size
# WaGa = test: qHTS assay to identify novel small-molecules to repurpose for Merkel cell carcinoma treatment (AID 1296009); settings: MCC and control cell lines, CellTiter-Glo viability, 72 h; series mostly up to 46 µM; note: nearly all actives have a fitted effect of over 60% in size
# In short: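 Dose-response viability screen; 72 hr exposure at 37 degree celsius; CellTiter-Glo added, 10 min room temperature, luminescence read; RLUs scaled between no-cell and DMSO wells.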
# DIV17 = test: qHTS profiling for inhibitors of Plasmodium falciparum proliferation (AID 504749); note: nearly all actives have a fitted effect of over 60% in size; settings: P. falciparum in erythrocytes, SYBR Green DNA, 72 h; series mostly up to 28.7 µM
# In short: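 Each compound contacts P. falciparum-infected red blood cells for 72 h at 37 C; lysis buffer (Tris, EDTA, saponin, Triton X, SYBR Green I) is added and fluorescence measured next morning; values normalized to controls.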
# Tags give direction and shape of the fitted curve.
structure (smiles),measurement,setting,value
CC1=CCC[C@@H]2[C@@](C)(CCc3ccoc3)[C@H](C(=O)O)CC[C@@]12C,Potency,CAOV3,inactive
O=C(Nc1nc2ccccc2n1CCc1ccccc1)c1ccccc1,Potency,[1],active: 5.15 µM
same,Potency,CAOV3,"inconclusive: 44.7 µM [cytotoxic, single point]"
same,Potency,SKOV3,inconclusive: 44.7 µM
Nc1ccc(S(=O)(=O)NC(=O)c2ccccc2)cc1,Potency,[2],inactive
same,Potency,[3],inactive
same,Potency,[4],inactive
same,Potency,[5],inactive
same,Potency,WaGa,inactive
same,Potency,DIV17,inactive
Cc1ccc(-c2ccccc2C#N)cc1,Potency,[3],inactive
same,Potency,[4],"inconclusive: 28.2 µM [inhibitor, partial curve, poor fit]"
same,Potency,[1],"inconclusive: 26.6 µM [inhibitor, partial curve, poor fit]"
same,Potency,WaGa,inactive
